The record followed here is the supplement of paper PMC11417369.

The list shows a part of the results.

This experiment has as its system PfSIP2 AP2 domain 1 (GST-tagged). The experiment is described as follows: gcPBM binding intensity (ln(normalized median fluorescence intensity)); higher = stronger DNA binding. In short, it runs like this: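 After 1 h on an Agilent 4 × 180k array of primer-extended double-stranded 36-bp intergenic genomic probes and negative controls, bound GST-tagged P. falciparum DNA-binding domains were detected with Alexa488 anti-GST antibody and scanned at 488 nm. The domains had been expressed in E. coli, and binding took place in 1× PBS with 1% milk, 0.2 mg/ml BSA, 0.5% salmon testes DNA and 0.03% Triton X-100. Binding intensity is the highest Masliner-normalised natural-log median intensity across replicate spots of either probe orientation.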
Regarding “TATATTAATTATAAGACACACATATAGTAATAGAAA [CACACA_site2056]”, the “gcPBM binding intensity (ln)” value turned out to be 6.9.
As to “AATAAGAAAACAAATGCACACCATTTATATAGATTA [CACACA_site8261]”, the “gcPBM binding intensity (ln)” value amounted to 7.1.
“ATGGGTTAGGCGTGTACACAATTGTATGGTTTAATA [CACACA_site4812]”: the “gcPBM binding intensity (ln)” value worked out at 7.2.
For “ACATATTTTTACTTTTGTACATATTTTTTAATTTTC [XGTACX_site640]” the value was 7.13; for “TTTATATATTTTTATCTTGATAATAATGTTTTAGAA [TGCATGCA_negctrl_site300]”, 6.57; for “GTATATTACATAAAATGTACATAAAAAGCGGAAAAG [XGTACX_site6905]”, 7.51.
Regarding “AAATATAATTAATGATGTACACTTATAGATATTGAT [XGTACX_site8435]”, the “gcPBM binding intensity (ln)” value is 7.09.
For “TATTCTCGTTCTCATACACACAAAATATACATACAC [CACACA_site7278]”, the “gcPBM binding intensity (ln)” value is 7.43.
On to “GGGTTAATATTTACTACACACACTTAAAATATGTAT [CACACA_site47]”, for which the “gcPBM binding intensity (ln)” value was 7.1.
Next, “ATGTATTTTTAAAAATATAAATTATGTAACTTGTGA [XGTACX_negctrl_site620]”: 6.98; “TACTGATATAATATAACCGTTTATGTGTATTTTTTA [XGTACX_negctrl_site81]”: 6.74; “TATAATAAAATTTTTACACACTTTAAAAAAAAAAAA [CACACA_site524]”: 6.88.
In the case of “CGTGGAAAAAAAAACACACACAAAAAAAAAAAAAAA [CACACA_site3997]”, the “gcPBM binding intensity (ln)” value is 6.96.
On to “TTCAAATATATGTTTTCACACACAAAAGAAATGAAA [CACACA_site8671]”, for which the “gcPBM binding intensity (ln)” value is 7.04.
On to “TTTTCTCTAAAAAGGTGTACAACTAATAATGCACTG [XGTACX_site6074]”, for which the “gcPBM binding intensity (ln)” value stood at 9.09.
Consider “ATATATATATAATATTGTACGAAAAAAAATAAAAAA [XGTACX_site974]”, for which the “gcPBM binding intensity (ln)” value is 8.84.
For “TATTTTACTTTAAAAATGGAAAAAAAAAAGAATATT [CACACA_negctrl_site1360]” the value was 6.75; for “TTTTTTTTTTTTACATGTACATATGAATTATAATAT [XGTACX_site5016]”, 7.29.
For “TTAATAAAACTAACACGTACACATATATAATATTAT [XGTACX_site3260]” the value was 7.13; for “ATTGTCATCATTATATGTACGTAAAAGAATATAGAT [XGTACX_site3117]”, 7.41.
Turning to “GAAAGAAGCATAAATGTACACACATATTTATATATT [CACACA_site8368]”, the “gcPBM binding intensity (ln)” value was 7.04.
Next, “TATGTTAAAAAAAAAAAAAAGAAAAAAATAAAAGGA [CACACA_negctrl_site119]”: 6.72; “AAACAAATAGACACTTGTACGTAAGTAAATAATTAA [XGTACX_site6157]”: 6.9.
“AAGGGAAAAATATGGTTGCACTAAAAATATGTAATT [GTGCAC_site9605]”: the “gcPBM binding intensity (ln)” value turned out to be 7.96.
In the case of “TTTCTATATAGATTTGCACACATAAAAATGCTTATA [CACACA_site2390]”, the “gcPBM binding intensity (ln)” value was 7.18.
In the case of “CTTTATACATGACATAGTACCCATTTTAGATTTGAA [XGTACX_site5240]”, the “gcPBM binding intensity (ln)” value is 6.9.
Regarding “TTTAAAAAAATGAAATAAAAAAAAAATAAAATAAAA [XGTACX_negctrl_site316]”, the “gcPBM binding intensity (ln)” value is 6.87.
For “ATATATATAATTTGTACACACAAATATGCATATATA [CACACA_site3432]”, the “gcPBM binding intensity (ln)” value was found to be 7.45.
“AAATAATTTATATATTGTACAAATATTAAATGCGAA [XGTACX_site3390]”: the “gcPBM binding intensity (ln)” value is 7.58.
Regarding “AGATATTTTTCTTAAGTACACACTAAATAGAAACTA [CACACA_site44]”, the “gcPBM binding intensity (ln)” value amounted to 7.29.
Take “TTTTTTTTTTTCAGTTGTACATTGGGAAAATATATA [XGTACX_site4416]”: the “gcPBM binding intensity (ln)” value stood at 7.
As for “AGTCTGAATAAAATTACACACATATACCTATAAATA [CACACA_site6929]”, the “gcPBM binding intensity (ln)” value worked out at 6.99.
Next, “GAAAAAAAAAAAAAAAGAAAATTCATATTTTTAATA [XGTACX_negctrl_site513]”: 6.56.
As for “ACATTTATATATAATTGTACCCTACATTCTCTTTTT [XGTACX_site189]”, the “gcPBM binding intensity (ln)” value is 6.95.
“AAAAATATATAAACACGTACACACACATATATGTAT [XGTACX_site7436]”: the “gcPBM binding intensity (ln)” value stood at 7.33.
With “TACCAAAAAAAAAAAAAAAATTAAATAAATATGAAA [TGCATGCA_negctrl_site383]”, the “gcPBM binding intensity (ln)” value stood at 6.58.
As for “GGGTTGATATATATTTGTACATATTATTATTTATTA [XGTACX_site7116]”, the “gcPBM binding intensity (ln)” value was found to be 7.37.
Take “TTTATTTTAACTTGTTCACACATTTGAATAAATAAA [CACACA_site5064]”: the “gcPBM binding intensity (ln)” value was 6.99.
For “ATATATATATATTATGTGCGCATATACCATTTTAAT [GTGCAC_site9575]” the value was 8.77; for “ATATAAATATTAATTACACACAAAAAAAAAAAAAAA [CACACA_site6671]”, 6.94; for “AATGGAAAAGGTAGTTGTACAACATGTTAAAATGGT [XGTACX_site1312]”, 7.63.
As to “ATATAAATAAACAACTTTGTTGGCCTTCCAAAATAT [CACACA_negctrl_site1181]”, the “gcPBM binding intensity (ln)” value came out at 6.76.
In the case of “TTGAAGAATAAATATGCACACATGCATATATTTTTA [CACACA_site5840]”, the “gcPBM binding intensity (ln)” value was 9.15.
